The values that follow come from paper PMC4354016, “Centromeric binding and activity of Protein Phosphatase 4” (Nature Communications, 2015).

The target in assay [1] is T1, GST::FBD^ΔFIM (Drosophila melanogaster) (UniProt Q9VHP9).
T1 sequence: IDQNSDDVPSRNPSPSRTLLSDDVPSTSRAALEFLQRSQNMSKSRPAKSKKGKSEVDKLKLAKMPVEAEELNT
Put plainly: pull-down; GST-tagged bait on Glutathione Sepharose 4b, IVTT 35S-Met-labelled prey, 1 h 25 °C, 50 mM HEPES pH 7.4, 150 mM NaCl, 0.1% Triton X-100, 0.5 mg/ml BSA; autoradiography; only the target purified.

The target of assay [2] is T2, GST::CENP-C^FBD (Drosophila melanogaster) (UniProt Q9VHP9).
T2 sequence: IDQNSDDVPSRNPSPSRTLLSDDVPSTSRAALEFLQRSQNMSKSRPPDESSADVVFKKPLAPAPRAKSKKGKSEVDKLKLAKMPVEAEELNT
The assay is described as above.

The target of assay [3] is T2, GST::CENP-C^FBD (Drosophila melanogaster). The experiment in a line: pull-down; GST::CENP-C^FBD on Glutathione Sepharose 4b incubated with wild-type (Oregon-R) syncytial embryo extract, 3 h 4 °C; Western blot; only the target purified.
The target in assay [4] is T3, FLAG::CENP-C^FBD (Drosophila melanogaster) (UniProt Q9VHP9).
T3 sequence: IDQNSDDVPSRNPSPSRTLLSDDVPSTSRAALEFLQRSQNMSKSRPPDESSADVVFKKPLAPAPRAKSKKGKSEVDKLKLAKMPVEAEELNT
Put plainly: co-IP; FLAG::CENP-C^FBD purified from ~10^9 stably transfected D.Mel-2 cells on anti-FLAG M2 magnetic beads; immunoblot.

The target in assay [5] is T4, GFP::Flfl^1–168 (Drosophila melanogaster) (UniProt Q9VFS5).
T4 sequence: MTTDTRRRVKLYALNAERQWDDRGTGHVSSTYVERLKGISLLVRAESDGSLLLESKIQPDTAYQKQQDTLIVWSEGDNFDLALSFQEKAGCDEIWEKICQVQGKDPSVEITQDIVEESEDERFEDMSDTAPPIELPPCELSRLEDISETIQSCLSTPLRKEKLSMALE
The experiment in a line: co-IP; GFP-Trap beads; D.Mel-2 cells expressing FLAG::CENP-C (WT or ΔFIM) transiently co-transfected with GFP-tagged Flfl forms; immunoblot.

Results are given in words; binding and its absence hold for the method and conditions named. Binding seen in cells or lysates may run through a third protein. Some results given as binding are weak or reduced against the parent protein; the word gives no strength. Tags and fused reporters may be left off the sequences shown.

B1: ^35S-Met-labelled Flfl^1–168 (IVTT) (domain or fragment, UniProt Q9VFS5 1-168)
chain: MTTDTRRRVKLYALNAERQWDDRGTGHVSSTYVERLKGISLLVRAESDGSLLLESKIQPDTAYQKQQDTLIVWSEGDNFDLALSFQEKAGCDEIWEKICQVQGKDPSVEITQDIVEESEDERFEDMSDTAPPIELPPCELSRLEDISETIQSCLSTPLRKEKLSMALE
modifications: 35S-methionine labelled
With B1, the binding entry was “no binding” in assay [1] and “binds” in assay [2].

B2: Falafel (Flfl), endogenous (protein, UniProt Q9VFS5 1-980)
chain: MTTDTRRRVKLYALNAERQWDDRGTGHVSSTYVERLKGISLLVRAESDGSLLLESKIQPDTAYQKQQDTLIVWSEGDNFDLALSFQEKAGCDEIWEKICQVQGKDPSVEITQDIVEESEDERFEDMSDTAPPIELPPCELSRLEDISETIQSCLSTPLRKEKLSMALESESYIKKLLNLFHVCEDLDNTEGLHHLFEIFKNIFLLNKNALFEIMFADDTIFDVVGCLEYDPSVSQPKKHRQYLKQLAKFREAVPIKNLDLLAKIHQTFRVQYIQDIILPTPSVFVEDNMLNTLSSFIFFNKVEIVTMIQDDERYLLDVFAVLTDPTTGDAKRRDTVLFLKEFCNYAQNLQPQGKDSFYKTLTCLGILQALELTLVMNDKKTKSASIDILTAIVEFSPLVVRNYTLNQANRPEVERMLLNIAIEQMLNDSEPELGIAVQLMGIVKILLEPENMLTEKGDFLNFFYKYSVQTLVAPVILNTIGDRPQNEDYQTAQLLGIVLDILSFCVEHHSYHIKNFLLQKDLLKRILVLMKSTHTFLVLGALRLLRKIIALKDEFYNRHIVKCNLFAPVVDAFIRNNGRYNLLESAILELFEFIKLEDIRTLCVYFVENFSKIFDEIEYVQTFKYLKNRYDQYQDRLKDRDKMENRTDGGLPIIRSGGRFRRDQRQMEEEEEMWFNEEDDFTEEIDTYNNVMKSVSEKNGPQTQNQQKSSPPHSTSPHSGLLGSLSTTASSTATSATSGAPVASGSSSPEAISADEQTQAAVHLAAAALQHHQQQQQQQQQNPFQQQTQPEIAELQQQLSSVEAPQSQELELSQSAAASASPTSSSSSLEASTSSSSASSSSSSSSSSSPPGSSAAASLCDSATVAAVAASQFLSTIATAMAASVTAAAATNSSPSISPAPAVSSPDIENADAQLPPSDDASSPASGEQDANSTEGTSSEADKTTAKKGLVDYESDSGEDDYEEDEYSEGPQAQKRARQA
For B2, the binding result in assay [3] and in assay [4] was “binds” each time.

B3: FLAG::CENP-C^ΔFIM (protein, UniProt Q9VHP9)
chain: MSKPQNNDTLELDDILSQPVKDKERFAAFMMRKLAENKPAQNDNLFGNFKLDFDLDFEVPLIKKSQAKPKSKLPEVQPLGELVSKNSAATEKVNEPPVDQAPNENVPPRRSPTLSPNNRRSMRRSGNVPGSDKLRRHAIRRRSRSCGRQLLPEFEETVNLTRSISSPVNFLPEISSTPCTEKQKEEVAKNTTRVETDKPAEKPMELSQEPEPENPLQTKVTSPARNPILAAEIEQICKERQSSFHKNVLQLDYSGRAPYSRPPTPSSPSVAGLRRTYTMEKGPAPGQLLLSPSHRYDTPSKMPVVKAKRFNQELMVPDTPERQSHDPAWQSEPQPEFVVPETQPQDLGELVQTLSRSAISPIVVINTSNSNRSVRRDAVAMKSVPTSPVTALSSPPIAPSPRRSAAASPQKSIAQLPRVEENMDAIMTDDESDEHPSTVPLNLAPSGGNTTRQRRLRSSNRARATIESQESSMRLLNLHKSVNAKKSKPRKTAIPLNKAPSAPINGEQFARELTRMSNYEILDLRKRNSLNEIYPLNGHRNHRSEKLILEEEIQRELLRRNLMDEAEGLPKQQSSDDSNEDYIPVPPKTQSLRTKSNDRSQGRGRPRSTRRDLPMTTELVNYLGLSQTLETRRKSSKDGKRCLYTKGSSDHEDNDSLSPVKLPRLSKSIQIVPPPPVSLRYSQSLQNLPCSGKFDFDNVVMAAPPDFHDSVNSDAIEIAPPPPEYVVNTRGRSTSGRKSNKNDLVLPPPGYEGGQEEEHDERPSQPRCTAKELQQSTQNGRRAMENELVPPPIEYVEEENRNNEQSRRSTKNGNLVDRNTHNAVEYCEPPEPPEYDDSDHGQASILRRSGKKLQHSKQSVQKSNKEQIIAPSYENNEDYDSDEEPIYNEEYGKEESQNKNVTRRKSDKDEMASHTLECIEGPDPNWNSSCNKQNRNHQNASKSKENDKLANRSSKSQKLSNPRQNAVGTEKSVALSNRGEECTEKSSDVMESLRVNTPTPPIDQNSDDVPSRNPSPSRTLLSDDVPSTSRAALEFLQRSQNMSKSRPAKSKKGKSEVDKLKLAKMPVEAEELNTTGIRRSKRGQVPLQMSWCHTMDPSKFNFMSGFIEPRSKNSKTKKGNLSKAKKASATKPKPTVEKNLPDNRGPLCSSTPRISEKLPGAIPHSESLGLSTLTWEETEVQAEAEKVPKKRGRPKKAVGGVQTDTEAEPEPEPEPMISSVAPLTSDQEEPDVPDEQAPYTEAALGPVVFSTPLRDEQEEASTKLMQWLRGVGDAPPSASMSDENASVSSANELIFCQVDGIDYAFYNTKEKAMLGYMRFKPYQKRSMKQAKVHPLKLLVQFGEFNVETLAVGEEKEVHSVLRVGDMIEIDRGTRYSIQNAIDKVSVLMCIRS
Take B3: the binding result in assay [5] is given as “no binding”.

B4: FLAG::CENP-C^WT (protein, UniProt Q9VHP9 1-1411)
chain: MSKPQNNDTLELDDILSQPVKDKERFAAFMMRKLAENKPAQNDNLFGNFKLDFDLDFEVPLIKKSQAKPKSKLPEVQPLGELVSKNSAATEKVNEPPVDQAPNENVPPRRSPTLSPNNRRSMRRSGNVPGSDKLRRHAIRRRSRSCGRQLLPEFEETVNLTRSISSPVNFLPEISSTPCTEKQKEEVAKNTTRVETDKPAEKPMELSQEPEPENPLQTKVTSPARNPILAAEIEQICKERQSSFHKNVLQLDYSGRAPYSRPPTPSSPSVAGLRRTYTMEKGPAPGQLLLSPSHRYDTPSKMPVVKAKRFNQELMVPDTPERQSHDPAWQSEPQPEFVVPETQPQDLGELVQTLSRSAISPIVVINTSNSNRSVRRDAVAMKSVPTSPVTALSSPPIAPSPRRSAAASPQKSIAQLPRVEENMDAIMTDDESDEHPSTVPLNLAPSGGNTTRQRRLRSSNRARATIESQESSMRLLNLHKSVNAKKSKPRKTAIPLNKAPSAPINGEQFARELTRMSNYEILDLRKRNSLNEIYPLNGHRNHRSEKLILEEEIQRELLRRNLMDEAEGLPKQQSSDDSNEDYIPVPPKTQSLRTKSNDRSQGRGRPRSTRRDLPMTTELVNYLGLSQTLETRRKSSKDGKRCLYTKGSSDHEDNDSLSPVKLPRLSKSIQIVPPPPVSLRYSQSLQNLPCSGKFDFDNVVMAAPPDFHDSVNSDAIEIAPPPPEYVVNTRGRSTSGRKSNKNDLVLPPPGYEGGQEEEHDERPSQPRCTAKELQQSTQNGRRAMENELVPPPIEYVEEENRNNEQSRRSTKNGNLVDRNTHNAVEYCEPPEPPEYDDSDHGQASILRRSGKKLQHSKQSVQKSNKEQIIAPSYENNEDYDSDEEPIYNEEYGKEESQNKNVTRRKSDKDEMASHTLECIEGPDPNWNSSCNKQNRNHQNASKSKENDKLANRSSKSQKLSNPRQNAVGTEKSVALSNRGEECTEKSSDVMESLRVNTPTPPIDQNSDDVPSRNPSPSRTLLSDDVPSTSRAALEFLQRSQNMSKSRPPDESSADVVFKKPLAPAPRAKSKKGKSEVDKLKLAKMPVEAEELNTTGIRRSKRGQVPLQMSWCHTMDPSKFNFMSGFIEPRSKNSKTKKGNLSKAKKASATKPKPTVEKNLPDNRGPLCSSTPRISEKLPGAIPHSESLGLSTLTWEETEVQAEAEKVPKKRGRPKKAVGGVQTDTEAEPEPEPEPMISSVAPLTSDQEEPDVPDEQAPYTEAALGPVVFSTPLRDEQEEASTKLMQWLRGVGDAPPSASMSDENASVSSANELIFCQVDGIDYAFYNTKEKAMLGYMRFKPYQKRSMKQAKVHPLKLLVQFGEFNVETLAVGEEKEVHSVLRVGDMIEIDRGTRYSIQNAIDKVSVLMCIRS
Consider B4, for which, in assay [5], the binding result is “binds”.
